Results from the supplement of paper PMC11417369.
± gives the standard deviation of the averaged measurements. Some of the results follow.

Each sequence was assayed on PfAP2-EXP AP2 domain (GST-tagged) (assay: gcPBM binding intensity (ln(normalized median fluorescence intensity)); higher = stronger DNA binding).
How it was run: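 Each value is the highest Masliner-normalised natural-log median intensity across replicate spots of either orientation of a probe. The probes were primer-extended double-stranded 36-bp intergenic genomic sequences on an Agilent 4 × 180k array, alongside negative controls, exposed for 1 h to GST-tagged P. falciparum DNA-binding domains expressed in E. coli. Bound protein was picked up with Alexa488 anti-GST antibody and scanned at 488 nm.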

Sequence	gcPBM binding intensity (ln)
TTTTTAGTTAATTAAACACACAAAAAAAAAAATAAA [CACACA_site3930]	8.44 ± 0.47
ATTTTTTCATATTCTACACACGTGAACAAATGTGTC [CACACA_site3007]	8.69 ± 0.36
CACACGTATATATATACACACTAAAATACCCAGACA [CACACA_site6142]	8.88 ± 0.54
TATTTTTTTACATATTGTACATAATATAAAACTTAC [XGTACX_site8273]	8.52 ± 0.38
TATATTTGGTTTCATTCATTTTTATAGAAATCTCAA [CACACA_negctrl_site1412]	8.48 ± 0.47
ATATAATAGAAGTGTACACACATATTTATGGGTGTA [CACACA_site5686]	8.55 ± 0.34
AATATTTTGTTATTTATTTAATCTAATATTATGATA [GTGCAC_negctrl_site258]	8.31 ± 0.38
GTATATAATTATATATGTACTAAATAAATATTTTTA [XGTACX_site6062]	8.29 ± 0.39
AAAAAATAAAAAAATAAAAAATAAAAAATAAAAAAT [TGCATGCA_negctrl_site90]	8.32 ± 0.53
TTTTCTAAAAAAAGTTGTACATCTTATTTATATTAT [XGTACX_site295]	8.31 ± 0.22
ATGTAAGACAAAAAGGGTACATAATGCGTATGTATT [XGTACX_site4666]	8.88 ± 0.45
AAAAATTACCCATCCATACACACATATTTTTTTTAA [CACACA_site2190]	8.65 ± 0.45
TATAAAAATAAATAAATAAATAAATAAATAAATAAA [TGCATGCA_negctrl_site310]	8.34 ± 0.54
ATAAAATCATTCAATGGTACAGAAATACAAAATGTA [XGTACX_site6739]	8.67 ± 0.37
TTAACATATGACATTTTTTCACCCTTCCTTTATTTT [CACACA_negctrl_site1192]	8.92 ± 0.45
TATGTATAAAAATATTGTACATATTATATATATATA [XGTACX_site2947]	9.58 ± 0.34
AGGTCACATTTGTCCTCACACATAGATAAATATATA [CACACA_site5460]	8.41 ± 0.42
TTTTTTTTTTTTTTTTTTTGATTCTTATAAAAATTT [GTGCAC_negctrl_site240]	7.83 ± 0.51
AATTAGCATTAAAAATGTACAAAAGAAAAAAATATA [XGTACX_site3816]	8.52 ± 0.4

Sequence	gcPBM binding intensity (ln)
GTCAAAAATAATATATGTACTTATAATAGATAAATG [XGTACX_site7755]	8.44 ± 0.3
ATAATTTGATCAATTTTTCATTTTTCATTTTTTTAA [CACACA_negctrl_site1252]	8.46 ± 0.51
AGAAAGAATGAAAAATGTACATATATGTAATAGCTA [XGTACX_site364]	9.01 ± 0.49
TAAAATTTAAAAAGGTGTACACTATAAATTAAAATA [XGTACX_site2081]	8.74 ± 0.37
AATCAAAATTCATTAACACACAATTTTAATATTCTT [CACACA_site5178]	8.28 ± 0.42
TTTTTTAAAATATGGACACACATATATATATATGTA [CACACA_site2784]	8.35 ± 0.37
TATTTTTATAAGAGCATGCACTGTTTAAAATGGTAT	9.54 ± 0.18
ATGATATGGATAAATACACACAATAAAATAATGTCT [CACACA_site6786]	8.71 ± 0.43
TTTTAACAAAACAAAACAAAATAATATAAAGATAAC [TGCATGCA_negctrl_site154]	9.04 ± 0.79
TTTATTTATTTATGTTGTACAAGTTTATACTGGAAT [XGTACX_site6479]	8.85 ± 0.4
TTTTGATATAAAAAAAGTACATTAATAATATTAATT [XGTACX_site4248]	8.29 ± 0.37
TAAATAATAATAAATGTGCACAGGTATTAACAAAAA [GTGCAC_site9988]	8.9 ± 0.18
CAGTATTCTTCTATATGTACTTATTTAAATATTCTT [XGTACX_site7555]	8.78 ± 0.33
GTTTGGTGGTGTTTTGGTACGTACGGGGGGGTATGT [XGTACX_site1983]	10.6 ± 0.19
TTTTTTTTTTTTTATTGTACTTATTTTTTTATGTTT [XGTACX_site7725]	8.32 ± 0.57
AAATATAAAGGATTAATATTATATATATATATATAT [XGTACX_negctrl_site211]	10.1 ± 0.32
GTATTATATATATAGGTGCATATATATATATAAATA [GTGCAC_site9787]	8.61 ± 0.26
ACACATACATATACATACACATTGTTTTCATGCATC [XGTACX_negctrl_site126]	8.8 ± 0.38
TATATGTGTCTACAGGTGCATATATCATATATTGCT	8.57 ± 0.11

Sequence	gcPBM binding intensity (ln)
TATAAATATTTATACACACACATATATTTATATATC [CACACA_site6366]	8.61 ± 0.47
TAAATAAATTTATACACACACACACGGATATAAATA [CACACA_site6532]	8.93 ± 0.45
ATATTTTCTTTAAATTGTACATATTGTGATACAAAA [XGTACX_site5886]	8.54 ± 0.42
TATGTATTTTTATGCACACATGCGTGGCTTATATAA [CACACA_site387]	9.06 ± 0.057
TTTCATTTAGCTTTTACACACTATATATTATTGATT [CACACA_site16]	8.88 ± 0.45
TATATACATACATGTAGTACCTAATTCGGTCCCGTA [XGTACX_site2702]	8.8 ± 0.49
ATTTTTTTTTTTTTTTTTTTTTTGTTTATACAAAAT [CACACA_negctrl_site1241]	8.07 ± 0.56
AAGATATTTGAATATACACACGATTTAAATTTAATA [CACACA_site3866]	8.34 ± 0.5
ATACGTGGGCAAAAAGTGCATATAATCAAAAAAAAA [GTGCAC_site9961]	8.81 ± 0.38
ATATATATATTTGTATGTACATATCATATTGTGTGT [XGTACX_site1580]	9.33 ± 0.17
TTCTTTCTGTTTTATTTATAATAATTTATGATAAAA [CACACA_negctrl_site766]	8.69 ± 0.32
TGTTTTTAATTTCGCACACACCTTGTGGAAAAAAAA [CACACA_site4482]	8.36 ± 0.36
TTGAAATATACGTAAGTAAATTTCATTTGGTTGTGT [XGTACX_negctrl_site600]	8.28 ± 0.39
AAAATATTTATTACTTCACACATTATTGTATTTATA [CACACA_site5082]	8.65 ± 0.44
CATATATTATTATATGCACACATGAAAATATACAAA [CACACA_site2795]	8.65 ± 0.28
ACGTATAATATGTACACACACATATATACAAAAAAA [CACACA_site917]	8.57 ± 0.3
TTTCTTTTTTTATAATCCACATTGGGAAAATCAAAA [TGCATGCA_negctrl_site159]	8.36 ± 0.41
GTATAACTTTTGCGCGTACACACATTTATCCTCTTT [CACACA_site208]	9.87 ± 0.55
